# Measured values as given in PubChem BioAssay AID624170 (National Center for Advancing Translational Sciences (NCATS), 2012).
# The whole screen tested about 410,000 compounds, of which about 850 (0.21%) were called active. The inconclusive results got no clear call from the source; some entries with a clear call stand among them for comparison. Calls follow the shape of the dose curve; as a rule, active = well fitted inhibition curve with a large enough effect; inconclusive = small, poorly fitted or top-dose-only effect, or another doubt; inactive = no such curve, though single readings can be large or run the other way. No potency is given beside an inconclusive call; the fits are too rough.
# Target: Glutaminase kidney isoform, mitochondrial (Homo sapiens) (UniProt O94925)
# Assay: qHTS for Inhibitors of Glutaminase (GLS)
# Settings: GLS enzymatic activity, qHTS titration; series mostly up to 45.5 µM
# Summary of the method: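 Coupled fluorescence readout: glutamate oxidase/HRP/Amplex Red detect glutamate formed by hKGA from L-glutamine (1 mM solution added). Buffer 45 mM KH2PO4 pH 8.2, 0.02% Tween-20; reads at t0 and 30 min RT.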
# Potency is read from the fitted curve at half-maximal effect; tags tell the direction and shape of the fitted curve.
# Chain of UniProt O94925 (O94925 whole entry, looked up, canonical isoform): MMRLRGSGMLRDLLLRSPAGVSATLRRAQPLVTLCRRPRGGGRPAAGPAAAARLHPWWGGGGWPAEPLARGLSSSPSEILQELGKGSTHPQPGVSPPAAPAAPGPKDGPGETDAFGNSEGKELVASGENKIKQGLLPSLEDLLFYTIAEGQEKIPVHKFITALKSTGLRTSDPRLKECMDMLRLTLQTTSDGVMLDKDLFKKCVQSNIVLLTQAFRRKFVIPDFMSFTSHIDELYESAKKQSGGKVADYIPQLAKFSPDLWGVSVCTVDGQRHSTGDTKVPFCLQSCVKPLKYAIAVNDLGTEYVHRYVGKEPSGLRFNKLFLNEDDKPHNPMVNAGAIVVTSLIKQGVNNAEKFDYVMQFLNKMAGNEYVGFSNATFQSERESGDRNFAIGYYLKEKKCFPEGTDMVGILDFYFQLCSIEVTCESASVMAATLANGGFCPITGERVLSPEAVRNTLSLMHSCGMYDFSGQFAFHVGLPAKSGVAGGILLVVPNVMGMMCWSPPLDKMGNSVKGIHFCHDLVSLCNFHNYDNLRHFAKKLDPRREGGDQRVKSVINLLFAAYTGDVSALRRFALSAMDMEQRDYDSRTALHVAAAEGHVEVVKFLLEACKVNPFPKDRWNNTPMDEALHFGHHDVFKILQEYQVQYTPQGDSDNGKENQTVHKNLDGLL
row,SMILES,Potency
1,CCN1CCN(c2ccc(N)cc2C)CC1,"inconclusive [inhibitor, single point]"
2,COc1ccc(/C=C2/C(=O)N(Cc3ccco3)C(=O)N(C(C)C)C2=O)cc1,"inconclusive [inhibitor, single point]"
3,O=P(C(Cl)Cl)(N1CCOCC1)N1CCOCC1,"inconclusive [inhibitor, single point]"
4,O=C1NC(=O)N(Cc2ccccc2Cl)C(=O)/C1=C/N1CCOCC1,"inconclusive [inhibitor, single point]"
5,N#CC1=C(N)Oc2c(c(=O)sc3ccccc23)C1c1ccncc1 (stereo not drawn),"inconclusive [inhibitor, partial curve, poor fit]"
6,COc1ccc(Cn2c(O)c(/C=N/NC(=O)c3ccncc3)c(=O)[nH]c2=O)cc1,"inconclusive [inhibitor, single point]"
7,N#Cc1ccc(Cn2cc(C(=O)c3ccco3)c3ccccc32)cc1,"inconclusive [inhibitor, full curve, poor fit]"
8,CCOc1ccc2nc(N=Nc3c(O)[nH]c(=S)[nH]c3=O)sc2c1,"inconclusive [inhibitor, single point]"
9,CN1C(=O)/C(=C/c2ccc(N3CCCCCC3)o2)C(=O)NC1=S,inactive
10,COCCNC(=O)CN1C(=O)CN=C(c2ccccc2)c2ccccc21,"inconclusive [inhibitor, full curve, poor fit]"
11,Cc1ccccc1NC(=O)CCl,inactive
12,CC1=NN(c2ccccc2)C(=O)/C1=C/c1c(O)[nH]c(=O)[nH]c1=O,"inconclusive [inhibitor, single point]"
13,O=C(N/N=C/c1c(O)n(Cc2ccccc2)c(=O)[nH]c1=O)c1ccncc1,inactive
14,C=Cc1ccc(Cn2c(C(=O)O)c(C=O)c3ccccc32)cc1,"inconclusive [inhibitor, partial curve, poor fit]"
15,Cn1c(=O)c2c(nc(N/N=C/c3c(O)n(C4CCCCC4)c(=S)[nH]c3=O)n2C)n(C)c1=O,"inconclusive [inhibitor, single point]"
16,C=CCN1C(=O)NC(=O)/C(=C\c2ccc(-c3ccccc3[N+](=O)[O-])o2)C1=O,active: 17.8 µM
17,CC1=C(C)CN2CC(C#N)=C(N)C2C1 (stereo not drawn),"inconclusive [inhibitor, single point]"
18,C=CCNC(=S)Nc1ccc(OC(=O)Nc2ccc(Cl)c(Cl)c2)cc1,"inconclusive [inhibitor, single point]"
